B1: LINE1-mini (parent)
chain: GGCAGAGCUCAACACAGCGUGGCAAAGUGGCUGUGGCUAGACUGCC

The source gives no read counts; variants with many changes may rest on few reads.

The values that follow come from the RNAGym collection of RNA variant scans (doi:10.7554/elife.90254).

Variants of B1 are the subject of the data set. Nature of the data set: self-cleavage, relative activity (ratio to wild type); higher = more cleavage; in vitro, sequencing; the parent is a self-cleaving ribozyme.
Consider G19A C37A C42G, for which the self-cleavage turned out to be 0.03.
As to G19A G40U C46U, the self-cleavage came to 0.13.
Regarding G19C G30C G35C, the self-cleavage was 0.15.
As for G19A A24U G44A, the self-cleavage amounted to 0.44.
Under G19A G21C G29U stands 0.33.
Turning to G19A G22C G35U, the self-cleavage came out at 0.03.
For G19C C23U G33C, the self-cleavage is 0.08.
Take G19A A39C A41U: the self-cleavage is 1.21.
For the variant G19A G27C U43A, the self-cleavage came out at 0.03.
Consider G19A C31U C42A, for which the self-cleavage was found to be 0.5.
Consider G19A U28G G29A G36U G44C, for which the self-cleavage worked out at 0.05.
In the case of G19A U20C G27A A39U, the self-cleavage stood at 0.05.
As to G19C C23G C46A, the self-cleavage turned out to be 0.18.
Under G19C A25G C46A stands 1.26; under G19A G36C C45U, 0.08; under G19A G36U G40C, 0.1.
As for G19A C42A U43A, the self-cleavage is 0.04.
As for G19A C31U G35U U43C, the self-cleavage amounted to 0.02.
Under G19C G30U G33C U34C A39C C42G C45G stands 0.01; under G19A C31A C37A, 0.17; under G19A U20C G22U U34G, 0.59.
Take G19A G29U A39G: the self-cleavage stood at 0.08.
Regarding G19A G40A C46U, the self-cleavage came to 0.02.
Under G19C C31A U38G stands 0.17.
Under G19A G30A G36C C37G stands 0.05.
Turning to G19C G27U C42U, the self-cleavage was 0.05.
Then G19C A24G U28C, with 0.35; and G19C G22U C45G, with 0.47; and G19A U20A G36U A41G, with 0.04.
On to G19A U34C G35A C42U, for which the self-cleavage is 0.01.
On to G19A A26C G27U C46A, for which the self-cleavage turned out to be 2.03.
In the case of G19C G21C G35U, the self-cleavage is 0.01.
As to G19C G22U A26C G29U, the self-cleavage was 0.67.
For the variant G19C C42U C46A, the self-cleavage came to 0.07.
As to G19C G29C G40U, the self-cleavage is 0.13.
Then G19C G22A A26U, with 0.24; and G19A C31G C45U, with 0.25; and G19C G22U U28A, with 0.13.
With G19A U20A G35U, the self-cleavage came out at 0.06.
Then G19A G21U U38G, with 0.04; and G19A G22U A41U C42A, with 0.53.
For the variant G19A G27U A39U, the self-cleavage worked out at 1.48.
Regarding G19A C23A A24U U34C, the self-cleavage is 0.5.
As for G19A G21C G44A, the self-cleavage was 0.17.
G19A G21C G44C: the self-cleavage came to 0.04.
Take G19C G27U C31A G36U: the self-cleavage was found to be 0.21.
Consider G19A C23A U43C, for which the self-cleavage stood at 0.32.
G19A G21A A26C U28A: the self-cleavage turned out to be 2.58.
Under G19A G21A G27U C42U stands 2.83; under G19C A26C G40C, 0.02; under G19C G22A G36C, 0.17.
Then G19C C23A G27A G30A C46U, with 0.66; and G19C G29C G36C U43C, with 0.04.
Then G19A G27U U34C G35A, with 0.14; and G19A U38G C45A, with 0.01; and G19A G21U G40U C42A, with 0.03.
Consider G19C G29C G30C U34A, for which the self-cleavage was 0.04.
Turning to G19A G22U A25C C46A, the self-cleavage is 0.37.
In the case of G19A G40A A41G, the self-cleavage came out at 0.07.
Under G19A C23U C42U stands 0.41; under G19C C31G G33U C46U, 0.08; under G19A C23A C42G, 0.02.
G19A G40C G44U: the self-cleavage amounted to 0.45.
Under G19C G29U C37A stands 0.02.
For the variant G19C G21C G29A G33U, the self-cleavage came to 0.54.
Under G19C A26U A41U stands 0.25; under G19C G22A G29U G35U, 0.09.
As to G19C G27U G30C, the self-cleavage came to 0.1.
Regarding G19C G30A G40U, the self-cleavage came to 0.24.
Take G19A C23G A39C: the self-cleavage stood at 0.15.
Then G19A U28G C42U C46G, with 0.16.
Regarding G19C A24G G36U, the self-cleavage was found to be 0.02.
Turning to G19A U20C U28A C37U U43C G44A, the self-cleavage was found to be 0.04.
With G19A G22A U28A, the self-cleavage is 0.59.
As to G19C C31A U32G, the self-cleavage stood at 0.04.
Under G19A G22C A25C C37A A39G stands 0.04; under G19C A26U G29A, 0.22.
For G19A G22C A26U, the self-cleavage worked out at 0.37.
Take G19C G22A A24G: the self-cleavage is 0.17.
On to G19C C31G U38G U43C, for which the self-cleavage came to 0.01.
In the case of G19A G30A C37U, the self-cleavage was 0.03.
G19A A39U G40U A41G G44A: the self-cleavage was 0.19.
Take G19A G22C C31A A39G C42G: the self-cleavage is 0.02.
In the case of G19A C31U U43A, the self-cleavage came to 0.04.
Then G19A C23A U28A G36U, with 0.02.
G19A G36U C37U: the self-cleavage came out at 0.01.
G19A U20G G40A: the self-cleavage came out at 0.11.
As for G19A C23A A26G G29C C42A, the self-cleavage is 0.03.
Under G19A U20C G30U G33A stands 0.44; under G19C C23U G40A, 0.02.
G19A G21U G22A: the self-cleavage stood at 0.15.
Then G19A G29U G30U C37A C45G, with 0.08; and G19C G21A G44U, with 0.28.
For G19A U34A G36U, the self-cleavage came out at 0.04.
With G19A U32A C37A C42U, the self-cleavage stood at 0.05.
As to G19C G33U U34C C46A, the self-cleavage was found to be 0.11.
For the variant G19A U20G C37G, the self-cleavage came to 0.04.
Regarding G19A U38C C46A, the self-cleavage came to 1.15.
For G19A U20G A41C, the self-cleavage was determined as 0.03.
Then G19C C23A G40A, with 0.02; and G19A U38C A41C, with 0.03.
Under G19C A25G U28A C45U stands 0.33; under G19C C23A A39G, 0.08; under G19A G21U G30A G33A U34A C42A, 0.01.
Consider G19C G22U U28C G33C, for which the self-cleavage stood at 0.41.
Under G19C A26C A39U stands 0.39.
For G19A G29U G40U, the self-cleavage is 0.04.
As to G19A A26G G35U, the self-cleavage is 0.02.
For G19C G29C C31A U32G G35C U43G, the self-cleavage was 0.02.
Take G19A U34G U43C: the self-cleavage was found to be 0.09.
G19A C37A U43A: the self-cleavage was found to be 0.
With G19A G40U U43A, the self-cleavage came out at 0.11.
As to G19C G22U U32A, the self-cleavage stood at 0.07.
On to G19A A26G G29C A39G, for which the self-cleavage came to 0.06.
For G19C G36C C45A, the self-cleavage is 0.03.
Regarding G19A A26C G40C, the self-cleavage came to 0.03.
Take G19A G33U G35U: the self-cleavage is 0.03.
Regarding G19C A25C C42U, the self-cleavage worked out at 0.1.
Consider G19A C31A C45U, for which the self-cleavage stood at 0.56.
With G19C G21C U28G, the self-cleavage came to 0.2.
As to G19A G21A G40C, the self-cleavage was determined as 0.2.
On to G19A G30A G36U, for which the self-cleavage came to 0.07.
On to G19A C31G A41U C42U, for which the self-cleavage worked out at 0.
Then G19C C31U G35U, with 0.05; and G19A G21A C31G, with 0.1; and G19A C31G A41C, with 0.02.
On to G19A G40A C42G G44A C46U, for which the self-cleavage turned out to be 0.15.
As to G19A G21C G30U C37G, the self-cleavage is 0.01.
Then G19C G35A C45U, with 0.19; and G19A G22C A41G, with 0.29.
In the case of G19A A41U C45A, the self-cleavage was 1.06.
As for G19A G21U C42U, the self-cleavage was 0.06.
Take G19A U20A G22U C23U U32G: the self-cleavage worked out at 0.04.
As for G19A U34C C45G, the self-cleavage was 0.
Under G19C A25C G30C C46G stands 0.1; under G19A C23G C42U G44A C46U, 0.01.
Under G19A A41C C46U stands 0.01.
For the variant G19C C23A C37A, the self-cleavage came out at 0.01.
As for G19A C23A G29A U38C, the self-cleavage turned out to be 0.24.
For the variant G19A U20A G33A G35C, the self-cleavage worked out at 0.05.
Under G19A G29C U34C G40C stands 0.12; under G19C A24U G29A C31U U34C C42G, 0.15.
As to G19A C42U U43A, the self-cleavage is 0.08.
As to G19C G22A C23A, the self-cleavage was 0.26.
For the variant G19C G35A C46A, the self-cleavage stood at 0.23.
Take G19C G27A U32A C45G: the self-cleavage was found to be 0.09.
G19C G21A U38C: the self-cleavage was 0.15.
Take G19A A26U U34C: the self-cleavage was determined as 0.22.
For the variant G19A A26C U38C A41C C45U, the self-cleavage amounted to 0.01.
G19A G33C G35C U38G G44C C45A: the self-cleavage worked out at 0.01.
Then G19A G30U G44A, with 0.49; and G19A U20A G22C G29U A41C, with 0.02.
As to G19A G21U U38G G40A, the self-cleavage is 0.04.
On to G19A C23A A25G C45A, for which the self-cleavage was determined as 1.26.
As for G19A C23A U28A G35A G36A, the self-cleavage was determined as 0.57.
For G19A G27C C31G U38G, the self-cleavage came out at 0.
Under G19C C37U G44U stands 0.03; under G19C G35U G36C, 0.14.
With G19A C37A C45G, the self-cleavage was determined as 0.02.
For the variant G19A G33U C46G, the self-cleavage was 0.03.
Take G19C G29U U34G: the self-cleavage was 0.05.
Turning to G19A U20A A24G A25G, the self-cleavage amounted to 0.24.
For G19A G21U G29U G36C, the self-cleavage was determined as 0.01.
Regarding G19C G33A U34A, the self-cleavage is 0.08.
Then G19C C31U A39U, with 0.25; and G19A G30A U32C, with 0.12; and G19C C31U G44A, with 0.03.
